SMILES strings stand for the structures. Values joined by “and” are separate entries in the source; they are usually repeats but may differ in a detail not shown here. Equal values may be shown once.

The assay has as its system transient focal cerebral ischemia (tMCAo) in rats. Nature of the assay: Transient middle cerebral artery occlusion (tMCAo) 90 min, Neurokin study, infarct volumes by TTC staining. As to conditions: 90 min tMCAo; IV bolus 25 mg/kg 15 min prior + SC 54 mg/kg 15 min prior, 24 and 29 hrs after occlusion; 48 hrs post-occlusion.

As for `CC[C@@H](CO)Nc1nc(NCc2ccccc2)c2ncn(C(C)C)c2n1` [(S)-roscovitine], the “decrease of sub-cortical infarct volume” value is 26% and 33%; the “decrease of total infarct volume” value was 30%.

The values are drawn from publication PMC2920814 (PLoS ONE, 2010).
